Reference: the supplement of paper PMC12217912
This is one part of the list. The full chains were built here from the parent and the listed change. Values near 0.05 are background.

B1: TEV protease; numbered along this chain (parent)
chain: MGESLFKGPRDYNPISSSICHLTNESDGHTTSLYGIGFGPFIITNKHLFRRNNGTLVVQSLHGVFKVKDTTTLQQHLVDGRDMIIIRMPKDFPPFPQKLKFREPQREERICLVTTNFQTKSMSSMVSDTSCTFPSGDGIFWKHWIQTKDGQCGSPLVSTRDGFIVGIHSASNFTNTNNYFTSVPKNFMELLTNQEAQQWVSGWRLNADSVLWGGHKVFMVKPEEPFQPVKEATQL

Variants of: B1
Test: raw area under fraction-flipped curve 0-4 h after induction (AUC4h, not background-subtracted), DNA-recorder readout of cleavage of the substrate (dimensionless); higher = more cleavage of the substrate by the protease variant
Conditions: temperature: 34 °C; time window: 0-4 h after rhamnose induction
Method: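 In vivo DNA recorder in E. coli TOP10(DE3) ΔrhaA at 34 °C. Each TEVp single-site mutant (parent TEVp 0) is paired with a single-site variant of the 7-mer TEVs (canonical ENLYFQ|S). The substrate sits between flexible linkers in a Bxb1-sfGFP-TEVs-SsrA fusion, so cleavage stabilises Bxb1 and speeds flipping of a recombination array, read by NGS. The value is the raw area under the fraction-flipped curve over 0-4 h after rhamnose induction (AUC4h), with ≥20 reads per time point. It is not background-subtracted; inactive controls average about 0.047.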
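Further: Bxb1 expression induced with 0.2% (w/v) L-rhamnose at OD600 near 0.5, cultures sampled hourly, flipped fraction per protease–substrate barcode pair counted by paired-end Illumina sequencing.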

Variant	area with substrate EALYFQS	area with substrate ECLYFQS	area with substrate EDLYFQS	area with substrate EFLYFQS	area with substrate EHLYFQS	area with substrate EILYFQS	area with substrate EKLYFQS	area with substrate ELLYFQS	area with substrate EMLYFQS	area with substrate EPLYFQS	area with substrate EQLYFQS	area with substrate ERLYFQS	area with substrate ESLYFQS	area with substrate EVLYFQS	area with substrate EWLYFQS	area with substrate EYLYFQS	area with substrate EELYFQS	area with substrate EGLYFQS	area with substrate ETLYFQS
MGESLFKGPRDYNPISSSICHLTNESDGHTTSLYGIGFGPFIITNKHLFRRNNGTLVVQSLHGVFKVKDTTTLQQHLVDGRDMIIIRMPKDFPPFPQKLKFREPQREERICLVTTNFQTKSMSSMVSDTSCTFPSGDGIFWKHWIQTKDGQCGSLLVSTRDGFIVGIHSASNFTNTNNYFTSVPKNFMELLTNQEAQQWVSGWRLNADSVLWGGHKVFMVKPEEPFQPVKEATQL [P155L]	0.0656	0.059	0.0586	0.0446	0.0625	0.0651	0.0785	0.0676	0.0602	0.0573	0.0538	0.0446	0.0621	0.051	0.0579	0.0629			
MGESLFKGPRDYNPISSSIRHLTNESDGHTTSLYGIGFGPFIITNKHLFRRNNGTLVVQSLHGVFKVKDTTTLQQHLVDGRDMIIIRMPKDFPPFPQKLKFREPQREERICLVTTNFQTKSMSSMVSDTSCTFPSGDGIFWKHWIQTKDGQCGSPLVSTRDGFIVGIHSASNFTNTNNYFTSVPKNFMELLTNQEAQQWVSGWRLNADSVLWGGHKVFMVKPEEPFQPVKEATQL [C20R]	0.0258	0.0459	0.05		0.0454	0.0521	0.0523	0.0499	0.0497	0.0408	0.0525	0.0591	0.0482	0.0313	0.0745	0.052	0.0543	0.0306	0.0535
MGESLFKGPRDYNPISSSICGLTNESDGHTTSLYGIGFGPFIITNKHLFRRNNGTLVVQSLHGVFKVKDTTTLQQHLVDGRDMIIIRMPKDFPPFPQKLKFREPQREERICLVTTNFQTKSMSSMVSDTSCTFPSGDGIFWKHWIQTKDGQCGSPLVSTRDGFIVGIHSASNFTNTNNYFTSVPKNFMELLTNQEAQQWVSGWRLNADSVLWGGHKVFMVKPEEPFQPVKEATQL [H21G]	0.128	0.117	0.119		0.118	0.0879	0.101	0.0744	0.14	0.11	0.111	0.113	0.0926	0.0884		0.0942	0.116	0.0907	0.109
MGESLFKGPRDYNPISSSICHLTNESDGHTTSLYGIGFGPFIITNKHLFRRNNGTLVVQSLHGVFKVKDTTTLQQHLVDGRDMIIIRMPKDFPPFPQKLKFREPQREERICLVTTNFQTKSMSSMVSDTSCTFPSGDGIFWKHWIQTKDGQCGSPWVSTRDGFIVGIHSASNFTNTNNYFTSVPKNFMELLTNQEAQQWVSGWRLNADSVLWGGHKVFMVKPEEPFQPVKEATQL [L156W]	0.0497	0.0623	0.0622		0.0781	0.0609	0.0628	0.0578	0.0541	0.0604		0.0489	0.0756	0.0568	0.0566	0.0465	0.0601	0.0647	0.0601
